The list shows a part of the results.

B1: chr1:113128187:113128288:+|3pUTR|ENSG00000198799|unk|total|mutant (ssRNA)
RNA: GGGAGUUCUACAGUCCGACGAUCUCAUACUUAUUUUCAAUCCUAAGUGUUCUCCCAUGGGCAGCAGCACUUCUUGAGCUGUUCCGUACUGCCACACCUUUUUAUGUCUUUACUAUGUCAGCCUCUGAUCAUUUUCACUUUGAACAACAGAGGAUUGAGCAUCA
B2: chr2:219567275:219567376:-|CDS|ENSG00000124006|msi1|FALSE|unique (ssRNA)
RNA: GGGAGUUCUACAGUCCGACGAUCUGUGUGCCCUCCGAGGGUGACUACCGCUUCCGCAUCUGCACAGUCAGCGGACAUGGCCGUAGUCCCCACGUGGUGUUCCACGGUUCUGCUCACCUUGGUGAGUUGGUCCUGCCAGACCCACAACAGAGGAUUGAGCAUCA
B3: ENSG00000168003:stop:overlap|stop_codon|ENSG00000168003|stop_codon|NA|stop_codon (ssRNA)
RNA: GGGAGUUCUACAGUCCGACGAUCCUGACAUCCCAGGGGCUGUAAGUGCCAACAUGACUGUGAAGGUAAGAGUUCUAGAUGGGUAGAAACUGACCGGUGGAGGGUGGGCUGGGCUUGUAGAAGUCUGUACCCAGGGGAGCCCCUCAACAGAGGAUUGAGCAUCA
B4: chr1:154207159:154207278:-|3pUTR|ENSG00000143612|msi1_unk|FALSE|overlapping (ssRNA)
RNA: GGGAGUUCUACAGUCCGACGAUCUUCCCCAACCCUUCCUUAUGAGCAUUUUUAGAACAUUGGCUAAGACUAUUUUCCCCCAGUAGCGCUUUUUUCUGGAUUUGCAUUCAGGUGUUAUUCUUAAUGUUUCUGUCAAAGCUUCUUCAACAGAGGAUUGAGCAUCA
B5: chr17:2300308:2300409:-|CDS|ENSG00000070366|unk|total|mutant (ssRNA)
RNA: GGGAGUUCUACAGUCCGACGAUCGACCCAGAAAAUAAUCGGGGACAAGAAUCCUUUCCCCGGACUGCUGGACAAGAGGAUCGCCGUCUAAAAAUUAUCAAAAGAACAAAGAAACCCGACCUGCAGAUCUAUCAGCCUGGACGACAACAGAGGAUUGAGCAUCA
B6: chrX:47636291:47636398:-|3pUTR|ENSG00000126767|unk|FALSE|unique (ssRNA)
RNA: GGGAGUUCUACAGUCCGACGAUCGCCUGCCCUUGGGGAGAUGAGGGAGCCCUGUCUGCGUUUUUGGAUGUGAGUAGAAGAGUUAGUUUGUUUUGUUUUAUUAUUCCUGGCCAUACUCAGGGGUCCAGGAAGAAUUUGUACCAUCAACAGAGGAUUGAGCAUCA
B7: chr10:106575406:106575507:-|3pUTR|ENSG00000108018|unk|FALSE|unique (ssRNA)
RNA: GGGAGUUCUACAGUCCGACGAUCUUAUGGACUGGGCAAAGCCCACUAUAAACUAUAGGAGAAAGAAGUUCUGAUAAACCUCUUAGUAUGCUCAGCCUCCUUCUUUGCUAUGUCCCUAAGCCAACAGGGUAUAACACAGGCCCUCAACAGAGGAUUGAGCAUCA
B8: chr6:36925443:36925544:+|3pUTR|ENSG00000198663|msi1|FALSE|unique (ssRNA)
RNA: GGGAGUUCUACAGUCCGACGAUCGAGGCAUCCCGUGGGAAAGUCCCCUAAGUCCCAUUUUGUACUUCAACAAAAAAUGACUGUAGCAGAAGAUAAGUGGAGACUUUUAUGGAUAUACUACUCAUUUUACUUAAAAUCUACCCACAACAGAGGAUUGAGCAUCA
B9: ENSG00000023516:stop:overlap|stop_codon|ENSG00000023516|stop_codon|NA|stop_codon (ssRNA)
RNA: GGGAGUUCUACAGUCCGACGAUCAAAAAGCUUCCAGUGAGGAGAGAUGCAAGUCGCUGUUUGAUUGGCUCUUGGAAAAUGCAUAGAGCAAACCCCAAACCAGUAUAUUUUAGUAUUUGUUUGGGGAGGGGAACAAGCCAAUAACAACAGAGGAUUGAGCAUCA
B10: ENSG00000107021:stop:overlap|stop_codon|ENSG00000107021|stop_codon|NA|stop_codon (ssRNA)
RNA: GGGAGUUCUACAGUCCGACGAUCACCCCAUCACAGAUGUCUGCCAGAUCCUGCAGAAAGCCAAGGAGCUCCAAGACUCAAAGUAGCCCGGCGGCAAGAGGCCCAUGUUCCGGAGAGAAGCCUCCCGACCCUGUGCCCUGGCUCCAACAGAGGAUUGAGCAUCA
B11: chr3:139561012:139561392:-|CDS|ENSG00000163864|control|control|control (ssRNA)
RNA: GGGAGUUCUACAGUCCGACGAUCGAAGGAUGCGCACAUCCAGGAAAUAGUGGAGAAGUUUGGCUUGGUGUGCGUGGGCCGAGUAGGUCACGACCCAAAAGGUUACAUCGCAGAAUCUCCCAUCCUACGGAUGCACCAGCACAACAACAGAGGAUUGAGCAUCA
B12: chrX:153695679:153695780:+|3pUTR|ENSG00000130821|msi1|FALSE|unique (ssRNA)
RNA: GGGAGUUCUACAGUCCGACGAUCGGCAGCAGAACCAAGGCAAAUAUUUCAGCUGGGCUAUACCCCUCUCCCCAUCCCUGUUAUAGAAGCUUAGAGAGCCAGCCAGCAAUGGAACCUUCUGGUUCCUGCGCCAAUCGCCACCAGCAACAGAGGAUUGAGCAUCA
B13: chr17:15628647:15628976:-|three_prime_utr|ENSG00000221926|control|control|control (ssRNA)
RNA: GGGAGUUCUACAGUCCGACGAUCUUUCCGGAGGCUCGGGGUCUAUAUCGACUUCCCGGGAGGGAUCCUUUCCUUCUAUGGCGUAGAGUAUGAUACCAUGACUCUGGUUCACAAGUUUGCCUGCAAAUUUUCAGAACCAGUCUACAACAGAGGAUUGAGCAUCA
B14: chr6:56640275:56640385:-|CDS|ENSG00000151914|unk|total|mutant (ssRNA)
RNA: GGGAGUUCUACAGUCCGACGAUCGACUUCCCGCCUGACUCCAUCUGUCACUCCAGCUUAUACACCUGGUUUCCCAUCAGGAUCCGUUCCAAAUUUCAGUUCAGGAGCCGAGCCAAAUUCAUUGCAAACUUUGAAGUUGAUGCACAACAGAGGAUUGAGCAUCA

This assay addresses MSI1 full-length (mouse, UniProt Q61474 1-362). Nature of the assay: nsRBNS (natural sequence RNA bind-n-seq); RBNS binding buffer (assumed for nsRBNS): 25 mM Tris pH 7.5, 150 mM KCl, 3 mM MgCl2, 0.01% Triton X-100, 500 ug/ml BSA, 20 U/ml SUPERase-In, 4 C; UNK is unkempt and MSI1 is Musashi-1; names of the RNAs are library labels; protein concentration not given here; high values mean tight binding.
Sequence of UniProt Q61474 (Q61474 whole entry): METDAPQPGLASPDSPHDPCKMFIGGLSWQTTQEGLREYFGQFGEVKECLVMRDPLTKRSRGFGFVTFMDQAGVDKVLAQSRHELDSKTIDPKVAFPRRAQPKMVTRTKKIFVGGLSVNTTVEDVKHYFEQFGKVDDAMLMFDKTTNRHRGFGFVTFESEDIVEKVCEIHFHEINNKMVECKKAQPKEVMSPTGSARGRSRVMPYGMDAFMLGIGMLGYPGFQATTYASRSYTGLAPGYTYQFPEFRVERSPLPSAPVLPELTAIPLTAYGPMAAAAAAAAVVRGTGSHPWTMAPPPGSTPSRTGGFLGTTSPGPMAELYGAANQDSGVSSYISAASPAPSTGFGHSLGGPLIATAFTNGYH
In turn, B1 showed a binding signal of 0.666 enrichment R.
The figure for B2 is 0.342 enrichment R; for B3 it is 0.543 enrichment R.
In the case of B4 it was 1.02 enrichment R; in that of B5, 0.503 enrichment R.
The figure for B6 is 7.37 enrichment R; for B7 it is 0.825 enrichment R.
B8 showed a binding signal of 0.596 enrichment R.
In the case of B9 it was 0.65 enrichment R; in that of B10, 0.38 enrichment R; in that of B11, 0.51 enrichment R.
With B12, the binding signal turned out to be 1.95 enrichment R.
Regarding B13, the binding signal came out at 0.288 enrichment R.
Molecule B14 registered a binding signal of 0.383 enrichment R.

The record behind these values is PMC12136788.
